In patent US20180148503A1 (Memorial Sloan Kettering, published 2018):

Tests used:
Experiment in all cases: phage FACS on peptide-loaded T2 cells
[1] = molecular target: T1, 009-AAAA (…) / HLA-A*0201 complex on T2 cells (human)
T1 construct: Control peptide with alanines at positions 4-7; also called EXT009-AAAA; 009-AAAA (position 4-7)

[2] = molecular target: T2, PRA300-309 (…) / HLA-A*0201 complex (human)
T2 construct: also called PRAME300; PRAME P300

[3] = molecular target: T3, 009-mut3 (…) / HLA-A*0201 complex on T2 cells (human)
T3 construct: also called EXT009-mut3; Pr302A

[4] = molecular target: T4, 009-mut4 (…) / HLA-A*0201 complex on T2 cells (human)
T4 construct: also called EXT009-mut4

[5] = molecular target: T5, 009-mut5 (…) / HLA-A*0201 complex on T2 cells (human)
T5 construct: also called EXT009-mut5

[6] = molecular target: T6, 009-mut6 (…) / HLA-A*0201 complex on T2 cells (human)
T6 construct: also called EXT009-mut6

[7] = molecular target: T7, 009-mut7 (…) / HLA-A*0201 complex on T2 cells (human)
T7 construct: also called EXT009-mut7; Pr306A

[8] = molecular target: T8, 009-mut8 (…) / HLA-A*0201 complex on T2 cells (human)
T8 construct: also called EXT009-mut8

[9] = molecular target: T9, 009-mut9 (…) / HLA-A*0201 complex on T2 cells (human)
T9 construct: also called EXT009-mut9

[10] = molecular target: T10, 009-mut10 (…) / HLA-A*0201 complex on T2 cells (human)
T10 construct: Alanine variant at peptide position 10

[11] = molecular target: T1, 009-AAAA (…) / HLA-A*0201 complex on T2 …; remark: listed apart in the source

B1: EXT009-20 phage (scFv phage clone) (scFv)
scFv: QAVLTQPPSASGTPGQRVTIS[letters of about 80 residues omitted]VFGTGTKVTVLGSRGGGGSGGGGSGGGGSLEMAQVQLVQSGAEVRKPGASVKVSCKASGGTFSSYAISWVRQAPGQGLEWMGRIIPILGIANYAQKFQGRVTITADKSTSTAYMELSSLRSEDTAVYYCARHYGQWWDYWGQGTLVTVSS
**Q.** Does B1 bind [1]?
**A.** Result: no binding

**Q.** And the MFI [2]?
**A.** The MFI was 13200.

**Q.** And the MFI [3]?
**A.** The MFI was 5310.

**Q.** What about the MFI [4] of the same binder?
**A.** The MFI was 8480.

**Q.** What about the MFI [5] of the same binder?
**A.** The MFI was 8440.

**Q.** And the MFI [6]?
**A.** Its MFI is 20100.

**Q.** And the MFI [7]?
**A.** The MFI was 2560.

**Q.** And the MFI [8]?
**A.** Its MFI is 88.9.

**Q.** And the MFI [9]?
**A.** The MFI was 85.6.

**Q.** And the MFI [10]?
**A.** The MFI was 85.7.

**Q.** And the MFI [11]?
**A.** The MFI was 106.
